Measured values published in the RNAGym collection of RNA variant scans (doi:10.7554/elife.90254).
Read counts are not given, so values of variants with three or more changes are uncertain.

B1: OR4K15 (parent)
chain: GUUAACGGUCAUAGGCCAUGGAAACUAGGAGCACCAUUUCGCUGCCAGUGAAGAAAUGAACAAAGAAAAUCUGGGCCAGGCAGGCAUCAAAAGAAAUAGUCUUGCGCUCAACCAGAAAGUCUGUAAUCAUUUUAAGGGUA

Variants of: B1
Assay: self-cleavage, relative activity (ratio to wild type); higher = more cleavage; in vitro, sequencing; the parent is a self-cleaving ribozyme

Variant	self-cleavage
U9C A59G A64G A118G	0.49
G7U U12A A23G A24G A33G C40U A82G	0.46
U9C A54U A91G	0.65
U9C A51G A78G U100C	0.2
U9C A68G U87C A117U	0.44
U9C U19C A96U	0.98
U9C G28A G58U	0.35
U9C U39A A47G	1.32
U9C U37C U49A A62G	1.56
U9C A52U U120A	1.45
G7U U9C A78U U133C	0.57
U9C A47C A95G G136A	0.87
U9A A78C A94G	0.3
U9C A68G A89C A116G	0.04
G8C A55G A60G	1.74
U9C A47G U72A U120G U127A	0.24
U9C A27G A54G U131C	1.79
U9A G41A U87A A98G U102C	1.77
U9C A95G U97C	0.65
U9C A23U A68G U87C A114G	0.77
U9C A69G C88A A117G	1.83
U9C A68G A94G	0.82
U9C A33G U97C A110U	0.44
U9C A11G U100C	1.08

Variant	self-cleavage
U9C A59G G84A U132C	1.45
U9C A23G A47G A86G U103C	0.25
U9C A60G G106A	0.02
G8A U19C U39C A54G U122C U133C	1.08
U9C A92G A96U U131C	0.31
U9A G136U A140G	1.62
U9C A47G A52G U139A	0.92
U9C A60G G74U	0.12
U9C U12C A60G	2.1
U9C A86G U130C	1.58
U9A U39C A68G A69U A78G	0.34
U9C A30U U43C U120C	0.68
U9C U19A A96C U132C	1.33
U9C A56G A69G C105G	0.08
U9A A94U U103C A114G	0.19
U9C A51G C85U A111G U139C	0.1
U9C A18G A125U U127A A140G	2.5
U9C A55G C77U	0.47
U9A A60G A66G A92G	0.57
G8A A27U A63U A118G U120C U131C	0.21
G8C U43C U100C A111C	0.01
U9C A23G A66U A94G U102A A135G	0.33
U9C A86G A114G	0.81
U9C A52G U70C A118G A135U	0.1

Variant	self-cleavage
U9C A23G U49A A86U U97C A111G	0
U9C U38C A54G A69G A117G U127C	0.77
U9C A27G A82U	0.31
U9A A23U A27G A90G A111U	0.08
U9C A24U U49C A63U C88U A95G U100C	1.86
U9A A22G U39C U97C A111G G123A	0
U9A A18U A56G	0.32
G8A A64G A129G U132C	1.24
U9C U39C A59U U70C	0.69
U9C A36U U49C U102C	2.82
U9C C25U A47U	0.54
U9C A18G C40U A54G U102C	1.94
U9A U12C A135U	1.98
U9A A47G A60U A92G A94G C101U A114G	0.09
U9A A22G A33C A47U A66G A82G U87C	0.39
U9A U19A A54U A111G	0.03
U9C A51G A66G	0.95
U9C U12C A22G A55G U97C A117G A129C	1.58
U9C U43C A63G	2.18
U9A A33C U103C	1.2
U9C A62G G83A	1.3
G8A G84A U87A	2.54
U9C A116G A118U	0.14
G8A A54G C101A A111G	0.04

Variant	self-cleavage
U9A U102A G106A U130C	0.01
U9C A86G U120C A126G	0.87
U9C U39A U72C U130C	0.6
U9C A30G U57C A118G	1.58
U9C A116G A140G	0.75
U9C A23G A51U A69G A82G C121A A125G U127C	0.07
U9C A68G U132C	1.64
U9C A13G A24G	1.93
U9A A36U A64U A91U A126G	1.58
U9C C46U A55G A67G U108C	0.06
U9C U37C A89G	1.27
U9C A18G A66G A86G	1.41
U9C G20A A60G	1.33
U9A U19C A22G A23G A59U A95G A110G	0.12
U9C U37C A64G U103C U132C	1.12
U9C U87A A129G	1.12
U9C A59G A64G G106U	0.06
U9A A30U U108C	0.03
U9C U38C A62G A68G A90G	1.26
U9C A36G A86C	0.21
U9A A111G A116G U127C	0.01
U9C A33G A51G A110G U139A	0.13
U9C A60G A69G A92G U102C U103C	0.29
U9A A78U A111U	0.03

Variant	self-cleavage
U9C U39C A91G	1.54
U9C A62G A92G U122C A126G	1.54
U9C A54G U130C	2
U9C A60C A114U	0.22
U9C U39A A52U G83A	2.14
U9A A47G A63G A67G U97A	0.74
G8U G29U A117G	2.01
U9C C17U A22U A23G U37C A62U A116U	0.26
U9C U49A U122C	1.46
U9C U38A A66G A117G A135G	1.66
U9C A24G A78G A92G A96G	0.38
U9A C32U C81U U102C U132C	0.49
U9C U57C G99A	0.21
U9C A23G C113A U122C	0.06
U9A U38G U72A A95G A111G	0.04
U9C A24G A52U U72A U132C	0.12
U9C A22C C40U C121U U127C	0.75
U9C A59G G104A G123A	0.01
U9C U19A A78G A126G	0.12
U9A A24G A33C A95G	0.87
U9C A69G A82G	0.41
U9A U122C U132C	0.89
U9C A95U A110G A117U U127C	0.08
U9C A59U A64G	1.13

Variant	self-cleavage
U9A U43C G80C U100C A110G U122C	0.01
U9A A60G A67U A68G	0.87
U9A A33G U43A U49C	0.12
U9C G15U U38C A89C	1.3
U9A A47G G75A A96G U97C U108G	0.02
U9C A23G A55G A56G A92G U122C	0.6
U9A U43C A51G	1.09
U9C A23G A51G A114G A140G	0.81
U9A A118G A126G	0.44
U9C A33G U108A	0.05
U9C A60G A90U U127A	1.45
U9A A24G A33G	1.24
U9A U103C U127A	0.31
U9C A54U U57C A91G U103C	0.5
U9C A56G U127C A140G	1.27
U9A A64G U103C	0.03
U9A A36G G74A C81A	0.19
U9C U38C U49C A59G A116G	0.18
U9C A18U A69G U103G U132C	0.04
U9C A33G G41U U72C	0.11
U9C A62G A96G	1.38
G8A A54G U108C	0.01
U9C A66G A114U	0.04
U9C A23G A62G A69U	1.31

Variant	self-cleavage
U9C A30G A95U A116G U122C	1.13
U9C A59G U72A	0.27
U9C U57C A86G A89G A111G A118G	0
U9C A22U U100C	2.36
U9C C40A A91G A96G	1.62
G8A A24G G50U A78U A86G	0.17
U9A U37C A59U A96G	1.12
U9C A63G A78U	0.41
U9C U43C U131G	1.64
G8A U19A A78U A117G U122C	0.13
G7U U37C U87A	1.62
U9C A24G A68G	1.74
U9C C109A A116G U122C A140G	0.14
U9A A54G G75A	0.07
G8A A30G A54G A62G A67G A94U A95G U108C	0.05
U9A A60G A114G	0.22
U9C A22U U49G A126G	1.05
U9C A116G U131C	0.29
U9C A52G U120C	0.73
U9C A82G A96G A114G	0.52
U9C U12A A13G U87A	0.34
U9C G14U A51G A86U A92G A96G A118G A129G	0.29
U9A C40A A96G	1.15
